Here are results for 153 variants from a collection of fitness landscapes (doi:10.1126/science.1257360).

B1: PhoQ; a variant is named by its letters at X, in order, P23837 (parent)
chain: MKKLLRLFFPLSLRVRFLLATAAVVLVLSLAYGMVALIGYSVSFDKTTFRLLRGESNLFYTLAKWENNKLHVELPENIDKQSPTMTLIYDENGQLLWAQRDVPWLMKMIQPDWLKSNGFHEIEADVNDTSLLLSGDHSIQQQLQEVREDDDDAEMTHSVAVNVYPATSRMPKLTIVVVDTIPVELKSSYMVWSWFIYVLSANLLLVIPLLWVAAWWSLRPIEALAKEVRELEEHNRELLNPATTRELTSLVRNLNRLLKSERERYDKYRTTLTDLTHSLKTPLXXLQXXLRSLRSEKMSVSDAEPVMLEQISRISQQIGYYLHRASMRGGTLLSRELHPVAPLLDNLTSALNKVYQRKGVNISLDISPEISFVGEQNDFVEVMGNVLDNACKYCLEFVEISARQTDEHLYIVVEDDGPGIPLSKREVIFDRGQRVDTLRPGQGVGLAVAREITEQYEGKIVAGESMLGGARMEVIFGRQHSAPKDE

The other results are listed elsewhere or left out. Where only a bound is given, the exact number is not on record here.

Variants of B1 are the subject of this assay. In words: enrichment ratio after two sorts for PhoP signalling (ratio (wild type AVST 3.29)); higher = more functional. As to conditions: with PhoP (E. coli).
In the case of NCAF, the enrichment ratio was at most 0.25.

HCRM: the enrichment ratio is at most 0.25.

As to VWQT, the enrichment ratio is at most 0.25.

For ESAE, the enrichment ratio was at most 0.25.

Consider IHCW, for which the enrichment ratio is at most 0.25.

In the case of GIDH, the enrichment ratio was at most 0.25.

DDNM: the enrichment ratio is at most 0.25.

As for VNGA, the enrichment ratio was at most 0.25.

On to STFY, for which the enrichment ratio was at most 0.25.

Take NRDC: the enrichment ratio was at most 0.25.

For the variant YFNP, the enrichment ratio is at most 0.25.

Turning to NMHS, the enrichment ratio was at most 0.25.

As for KRMC, the enrichment ratio was at most 0.25.

Regarding ENWS, the enrichment ratio is at most 0.25.

Consider MWPH, for which the enrichment ratio was at most 0.25.

On to MEMA, for which the enrichment ratio is at most 0.25.

On to YDVM, for which the enrichment ratio was at most 0.25.

As to YQCH, the enrichment ratio was at most 0.25.

As for HHSM, the enrichment ratio is at most 0.25.

Consider YDFE, for which the enrichment ratio is at most 0.25.

As to SQPQ, the enrichment ratio is at most 0.25.

In the case of METD, the enrichment ratio is at most 0.25.

Consider QSVW, for which the enrichment ratio is at most 0.25.

With DHGE, the enrichment ratio is at most 0.25.

For PFDH, the enrichment ratio was at most 0.25.

In the case of MVHW, the enrichment ratio is at most 0.25.

Turning to LKLL, the enrichment ratio was at most 0.25.

As for EACV, the enrichment ratio was at most 0.25.

For the variant NAAG, the enrichment ratio is at most 0.25.

For LNWH, the enrichment ratio is at most 0.25.

Regarding PMDV, the enrichment ratio is at most 0.25.

With LWSP, the enrichment ratio was at most 0.25.

Turning to GIPC, the enrichment ratio is at most 0.25.

For NAFA, the enrichment ratio was at most 0.25.

For the variant FADK, the enrichment ratio was at most 0.25.

For KYYY, the enrichment ratio is at most 0.25.

Take QGYF: the enrichment ratio came out at 1.19.

With YHVH, the enrichment ratio is at most 0.25.

With RMFV, the enrichment ratio is at most 0.25.

ISIS: the enrichment ratio was at most 0.25.

In the case of MDEF, the enrichment ratio is at most 0.25.

With VAVF, the enrichment ratio is at most 0.25.

For VNNR, the enrichment ratio was at most 0.25.

In the case of FETV, the enrichment ratio stood at 4.06.

Take VKVK: the enrichment ratio is at most 0.25.

In the case of GRGQ, the enrichment ratio is at most 0.25.

With REYH, the enrichment ratio is at most 0.25.

Consider FCYI, for which the enrichment ratio was at most 0.25.

Take NDLH: the enrichment ratio was at most 0.25.

Regarding WMSR, the enrichment ratio was at most 0.25.

Regarding GMDN, the enrichment ratio is at most 0.25.

Turning to MWFT, the enrichment ratio is at most 0.25.

Turning to GAIK, the enrichment ratio is at most 0.25.

On to MHSG, for which the enrichment ratio was at most 0.25.

With YAPP, the enrichment ratio was at most 0.25.

Regarding EQTI, the enrichment ratio is at most 0.25.

Take LADD: the enrichment ratio is at most 0.25.

On to QIAN, for which the enrichment ratio was at most 0.25.

Turning to KPMD, the enrichment ratio was at most 0.25.

With KDES, the enrichment ratio is at most 0.25.

In the case of QHIQ, the enrichment ratio was at most 0.25.

In the case of YGGN, the enrichment ratio is at most 0.25.

Take HYQA: the enrichment ratio is at most 0.25.

Take QYNC: the enrichment ratio is at most 0.25.

As for QQAR, the enrichment ratio was at most 0.25.

As to KRKS, the enrichment ratio was at most 0.25.

On to GSYA, for which the enrichment ratio was at most 0.25.

Take NQIH: the enrichment ratio is at most 0.25.

Take KNVA: the enrichment ratio is at most 0.25.

Turning to PFLI, the enrichment ratio is at most 0.25.

As for ATMA, the enrichment ratio came to 1.82.

Take RNDR: the enrichment ratio is at most 0.25.

Take TGNP: the enrichment ratio was at most 0.25.

On to QRCL, for which the enrichment ratio was at most 0.25.

Consider GAVL, for which the enrichment ratio is at most 0.25.

For HQHS, the enrichment ratio is at most 0.25.

Turning to DRPL, the enrichment ratio was at most 0.25.

Take NKSQ: the enrichment ratio is at most 0.25.

Take HAFE: the enrichment ratio is at most 0.25.

For the variant VKYQ, the enrichment ratio was at most 0.25.

With NMLP, the enrichment ratio is at most 0.25.

LHIA: the enrichment ratio was at most 0.25.

In the case of VYTK, the enrichment ratio was at most 0.25.

Turning to GHCL, the enrichment ratio was at most 0.25.

Turning to PKCW, the enrichment ratio was at most 0.25.

In the case of MVWE, the enrichment ratio is at most 0.25.

On to QEYP, for which the enrichment ratio was at most 0.25.

Take TILR: the enrichment ratio is at most 0.25.

As to YGMN, the enrichment ratio was at most 0.25.

Take DHAC: the enrichment ratio was at most 0.25.

KYQI: the enrichment ratio is at most 0.25.

Turning to YRWY, the enrichment ratio is at most 0.25.

Regarding ITSW, the enrichment ratio was at most 0.25.

For the variant DPYF, the enrichment ratio is at most 0.25.

As to GYQP, the enrichment ratio is at most 0.25.

For LAYF, the enrichment ratio came to 1.23.

With FHKY, the enrichment ratio is at most 0.25.

QKII: the enrichment ratio was at most 0.25.

With YEWR, the enrichment ratio was at most 0.25.

KIIV: the enrichment ratio is at most 0.25.

In the case of EHCK, the enrichment ratio is at most 0.25.

For EYYT, the enrichment ratio is at most 0.25.

Take PRRR: the enrichment ratio is at most 0.25.

Consider YCFT, for which the enrichment ratio was at most 0.25.

Consider WGSR, for which the enrichment ratio was at most 0.25.

LICP: the enrichment ratio is at most 0.25.

On to GLRR, for which the enrichment ratio is at most 0.25.

Turning to ISAG, the enrichment ratio was at most 0.25.

Turning to NFID, the enrichment ratio is at most 0.25.

Take ISVE: the enrichment ratio was at most 0.25.

For the variant TTKW, the enrichment ratio was at most 0.25.

On to SFHQ, for which the enrichment ratio is at most 0.25.

With APMR, the enrichment ratio was at most 0.25.

Turning to MPHA, the enrichment ratio is at most 0.25.

With TMLT, the enrichment ratio turned out to be 1.84.

As to SIPW, the enrichment ratio is at most 0.25.

As for QEYG, the enrichment ratio was 9.59.

Consider TIHT, for which the enrichment ratio is at most 0.25.

As for KRMT, the enrichment ratio was at most 0.25.

In the case of FSEL, the enrichment ratio is at most 0.25.

As to DCQH, the enrichment ratio was at most 0.25.

MVRL: the enrichment ratio is at most 0.25.

For QRNK, the enrichment ratio was at most 0.25.

Turning to MNYE, the enrichment ratio was at most 0.25.

As to FITS, the enrichment ratio was at most 0.25.

In the case of GCPY, the enrichment ratio is at most 0.25.

WYMW: the enrichment ratio was at most 0.25.

Consider QVDI, for which the enrichment ratio was at most 0.25.

VYIE: the enrichment ratio was at most 0.25.

In the case of ASFC, the enrichment ratio was at most 0.25.

As to HLPE, the enrichment ratio was at most 0.25.

In the case of EHSK, the enrichment ratio is at most 0.25.

For WYQG, the enrichment ratio was at most 0.25.

On to HFWV, for which the enrichment ratio is at most 0.25.

KARE: the enrichment ratio was at most 0.25.

Regarding NIPV, the enrichment ratio was at most 0.25.

Regarding PNKQ, the enrichment ratio was at most 0.25.

Consider RCQP, for which the enrichment ratio was at most 0.25.

Turning to MSMM, the enrichment ratio worked out at 11.

For the variant EELL, the enrichment ratio is at most 0.25.

As for GWSC, the enrichment ratio is at most 0.25.

With CSAS, the enrichment ratio was determined as 36.6.

LKHK: the enrichment ratio is at most 0.25.

As for VYPQ, the enrichment ratio is at most 0.25.

Regarding FKHQ, the enrichment ratio is at most 0.25.

For MLYM, the enrichment ratio was 8.36.

Consider MGYE, for which the enrichment ratio is at most 0.25.

On to EELI, for which the enrichment ratio was at most 0.25.

With DVFF, the enrichment ratio is at most 0.25.

Consider YNAF, for which the enrichment ratio is at most 0.25.

On to QYAH, for which the enrichment ratio is at most 0.25.

Consider PPWW, for which the enrichment ratio is at most 0.25.

NHEA: the enrichment ratio was at most 0.25.
